# This is one part of the list. Most values come without repeats; read them as rough.
# Tested on: COLO792
# Assay: cell count relative to DMSO control; melanoma cells; higher = more viable cells
# Conditions: library dose: low library concentration; 72 h
# 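Note: cell number obtained by counting DAPI-stained nuclei in high-throughput microscope images with image analysis software, screen run in 1,536-well plates.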
row,SMILES,cell count [%]
1,"N#CC[C@H](C1CCCC1)n1cc(-c2ncnc3[nH]ccc23)cn1 [ruxolitinib] + Nc1cccc2c1CN(C1CCC(=O)NC1=O)C2=O [lenalidomide] (first compound 1 µM, partner dose 1 µM)",108
2,"CC[C@]1(O)C[C@H]2CN(CCc3c([nH]c4ccccc34)[C@@](C(=O)OC)(c3cc4c(cc3OC)N(C=O)[C@H]3[C@@](O)(C(=O)OC)[C@H](OC(C)=O)[C@]5(CC)C=CCN6CC[C@]43[C@@H]65)C2)C1 [vincristine] + C#Cc1cccc(Nc2ncnc3cc(OCCOC)c(OCCOC)cc23)c1 [erlotinib] (first compound 0.0001 µM, partner dose 0.8 µM)",88.6
3,"CC[C@]1(O)C[C@H]2CN(CCc3c([nH]c4ccccc34)[C@@](C(=O)OC)(c3cc4c(cc3OC)N(C=O)[C@H]3[C@@](O)(C(=O)OC)[C@H](OC(C)=O)[C@]5(CC)C=CCN6CC[C@]43[C@@H]65)C2)C1 [vincristine] + Nc1cccc2c1CN(C1CCC(=O)NC1=O)C2=O [lenalidomide] (first compound 0.0001 µM, partner dose 1 µM)",100
4,"N#CC[C@H](C1CCCC1)n1cc(-c2ncnc3[nH]ccc23)cn1 [ruxolitinib] + NC1(c2ccc(-c3nc4ccn5c(=O)[nH]nc5c4cc3-c3ccccc3)cc2)CCC1 [MK2206] (first compound 1 µM, partner dose 0.4 µM)",76.3
5,"N#CC[C@H](C1CCCC1)n1cc(-c2ncnc3[nH]ccc23)cn1 [ruxolitinib] + C#Cc1cccc(Nc2ncnc3cc(OCCOC)c(OCCOC)cc23)c1 [erlotinib] (first compound 1 µM, partner dose 0.8 µM)",83.6

# — the supplement of paper PMC4604168 (melanoma cell lines)
